Results: PubChem BioAssay AID1458 (National Center for Advancing Translational Sciences (NCATS), 2008)
Values joined by “and” are separate entries in the source; they are usually repeats but may differ in a detail not shown here. Identical values can stand only once. The campaign covered roughly 210,000 compounds. About 5,900 (2.8%) were called active. Inconclusive means that the source gave no clear call. Such entries were picked first, then a sample of the others. Calls follow the shape of the dose curve; as a rule, active = well fitted activation curve with a large enough effect; inconclusive = small, poorly fitted or top-dose-only effect; inactive = no such curve, though single readings can be large or run the other way. Potencies of inconclusive entries are doubtful fits and often do not repeat.
Potency is read from the fitted curve at half-maximal effect; tags tell the direction and shape of the fitted curve.

Assay: qHTS Assay for Enhancers of SMN2 Splice Variant Expression; also: nearly all actives have a fitted effect of over 55% in size; as to activity change, positive = activation: % of control where 0% means no effect
Settings: HEK293 SMN2-luciferase splicing reporter, luminescence, 30-36 h; activity change, positive = activation: at 46.1 µM (top of the series)
In short: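 HEK293 cells carry an SMN2 […]–luciferase reporter in which exon 7 inclusion puts luciferase in frame. Cells were plated 10-12 h before compound addition, then incubated 30-36 h at 37C. ONE-Glo luminescence was read; sodium butyrate at 4.5 mM final served as control.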
For `O=c1c2ccccc2nc2c3ccccc3c(Cl)nn12`, the Potency was “inactive”.
For `COc1ccccc1C(=O)Nc1cc2cc(Br)ccc2oc1=O`, the Potency was inconclusive: 14.1 µM [activator, single point].
With `O=C(COc1cccc2cccnc12)N1CCc2ccccc21` the Potency was inconclusive: 15.8 µM [activator, single point].
For `CCN1CC2CCCC3(C1)C(=O)NC1(CCCCC1)N=C23` (stereo not given), the Potency was inconclusive: 3.98 µM [activator, full curve, poor fit].
With `CNC(=O)c1oc(-c2ccccc2)nc1C` the Potency was “inactive”.
For `Cc1cc(=O)n2c(C(=O)Nc3ccc(Br)cc3)c(C(=O)Nc3ccccc3)sc2n1`, the Potency was “inactive”.
With `CC1Cc2nc(SCC(=O)OCc3ccccc3)n(C)c(=O)c2S1` (stereo not given) the Potency was inconclusive: 0.0018 µM [activator, full curve, poor fit].
In the case of `Cc1nc2ccc(N=NC3=C(O)CC(C)(C)CC3=O)cc2s1`, the Potency is reported as inconclusive: 22.4 µM [activator, single point].
For `COc1ccccc1OCc1nnc(-c2ccccc2)o1`, the Potency was “inactive”.
For `O=S(=O)(c1ccccc1)C1(S(=O)(=O)c2ccccc2)CCCC1`, the Potency was “inactive”.
For `Cc1ccc(CNC(=O)/C=C/c2c(Cl)cccc2Cl)cc1`, the Potency was “inactive”.
For `O=C(Cn1cnc2ccccc2c1=O)c1ccc2c(c1)OCCO2`, the Potency was active: 11.2 µM.
With `COc1ccc(C(=O)N2CCC3(CCN(C(=O)Nc4ccccc4)CC3)CC2)cc1` the Potency was “inactive”.
With `c1ccc(Sc2cccc3ccccc23)c(CNC2=NCCN2)c1` the Potency was inconclusive: 35.5 µM [activator, single point].
In the case of `CCCC(C)c1nnc(NC(=O)C2CCCO2)s1` (stereo not given), the Potency is reported as inconclusive: 0.708 µM [activator, partial curve].
With `O=C(OCC(=O)c1cccs1)c1ccc(NC(=O)c2ccco2)cc1` the Potency was inconclusive: 0.0032 µM [activator, full curve, poor fit].
With `COc1cc2c(cc1OC)-c1cc(N3CCCc4ccccc43)nc(=O)n1CC2` the Potency was inconclusive: 31.6 µM [activator, partial curve].
For `O=C(NCCc1ccccc1)c1ccco1`, the Potency was active: 12.6 µM.
With `CCN(CC)CCN1C(=O)C(=O)/C(=C(/O)c2c(C)[nH]c(C(=O)OC)c2C)C1c1cccc(OC)c1` (stereo not given) the Potency was inconclusive: 0.01 µM [activator, full curve, poor fit].
With `Cn1cccc1/C=C1\Cc2ccccc2C1=O` the Potency was inconclusive: 31.6 µM [activator, single point].
For `Cc1nn(-c2ccccc2)c(C)c1/C=N/NC(=O)c1cc(C2CC2)[nH]n1`, the Potency was inconclusive: 3.55 µM [activator, full curve, poor fit].
In the case of `COc1ccc(OC(C)C(=O)NCc2cccnc2)cc1` (stereo not given), the Potency is reported as inconclusive: 2.82 µM [activator, partial curve, poor fit].
With `COCCn1c(=O)[nH]c2cc(C(=O)N3CCN(c4ccc(Cl)cc4)CC3)ccc2c1=O` the Potency was “inactive”.
With `COc1ccccc1-n1nc(-c2ccccc2)c2cnc3c(F)cc(F)cc3c21` the Potency was “inactive”.
For `COc1cccc(C(=O)Nc2nc3ccccc3[nH]2)c1`, the Potency was inconclusive: 0.631 µM [activator, full curve].
In the case of `Cc1onc(-c2ccccc2Cl)c1C(=O)NC1CCS(=O)(=O)C1` (stereo not given), the Potency is reported as “inactive”.
For `COc1cc(-c2oc3cc(O)ccc3c(=O)c2O)ccc1O`, the Potency was inconclusive: 20 µM [activator, single point].
In the case of `Nc1nn(-c2ccccc2)c(N)c1N=Nc1ccccc1`, the Potency is reported as active: 8.91 µM.
In the case of `COc1cc2cc(/C=C/C(=O)c3ccco3)c(Cl)nc2cc1OC`, the Potency is reported as inconclusive: 6.31 µM [activator, partial curve, poor fit].
With `Cc1cc(C)c2nc(NC(=O)c3ccc4c(=O)n5c(nc4c3)CCCCC5)sc2c1` the Potency was “inactive”.
In the case of `Cc1ccc(Sc2ncccc2C(=O)O)cc1`, the Potency is reported as inconclusive: 3.98 µM [activator, single point].
With `COc1ccc(NC2CC(=O)N(c3cccc(C)c3)C2=O)cc1` (stereo not given) the Potency was inconclusive: 12.6 µM [activator, partial curve, poor fit].
With `Cc1ccc(-c2noc(CNC(=O)COc3cc(C)c(Br)c(C)c3)n2)cc1` the Potency was “inactive”.
For `CN(C)c1nc(N)c([N+](=O)[O-])c(NCCO)n1`, the Potency was inconclusive: 0.708 µM [activator, full curve, poor fit].
With `COc1cc(C2Nn3c(nnc3-c3ccccc3OC)S2)ccc1O` (stereo not given) the Potency was inconclusive: 12.6 µM [activator, single point].
In the case of `O=C(Nc1cccc(Cn2cccn2)c1)c1cc2c(s1)CCCC2`, the Potency is reported as inconclusive: 0.562 µM [activator, full curve, poor fit].
With `NCc1ccc(-c2nc3ccccc3o2)cc1` the Potency was inconclusive: 35.5 µM [activator, single point].
With `O=C(O)c1cc(S(=O)(=O)N2CCOCC2)ccc1N1CCOCC1` the Potency was inconclusive: 3.98 µM [activator, full curve, poor fit].
In the case of `Cc1ccccc1CSc1nnc(-c2cccnc2)n1N`, the Potency is reported as inconclusive: 35.5 µM [activator, partial curve, poor fit].
With `COc1cc(NC(=O)CN2CCCCC2)c(C)cc1[N+](=O)[O-]` the Potency was inconclusive: 2 µM [activator, full curve].
In the case of `CCOc1ccc2nc(SCC(=O)c3ccc(C)s3)sc2c1`, the Potency is reported as inconclusive: 0.1 µM [activator, full curve, poor fit].
In the case of `C=C(C)C1CC=C(C)/C(=N\NC(=S)Nc2ccc(C)cc2)C1` (stereo not given), the Potency is reported as inconclusive: 20 µM [activator, partial curve, poor fit].
In the case of `O=C(Nc1ccc(F)cc1F)c1cccc2c1C(=O)N(C1CCCCC1)C2`, the Potency is reported as “inactive”.
In the case of `Cn1cnc2c(NCc3ccccc3)nc(NCCO)nc21`, the Potency is reported as inconclusive: 25.1 µM [activator, partial curve, poor fit] and inconclusive: 31.6 µM [activator, single point] and inconclusive: 891 nM [activator, full curve, poor fit].
In the case of `CSCCC(NS(=O)(=O)c1ccc2ccccc2c1)C(=O)O` (stereo not given), the Potency is reported as inconclusive: 35.5 µM [activator, single point].
For `CCOc1ccc2nc(NC(=O)Cc3cccs3)sc2c1`, the Potency was inconclusive: 5.62 µM [activator, full curve].
With `c1ccc2c(c1)[nH]c1c(N3CCOCC3)ncnc12` the Potency was “inactive”.
With `COc1ccc(/C=C2\SC(=O)N=C2N)cc1OC` the Potency was inconclusive: 25.1 µM [activator, single point].
For `O=C(CSc1nnc(Cc2cc(=O)[nH]c(=O)[nH]2)n1-c1ccc(Cl)cc1)NC1CCCC1`, the Potency was inconclusive: 5.62 µM [activator, single point].
For `CC(C)Oc1ccc(/C(O)=C2/C(=O)C(=O)N(CCN3CCOCC3)C2c2ccccc2)cc1` (stereo not given), the Potency was inconclusive: 3.55 µM [activator, partial curve, poor fit].
In the case of `CSc1nsc(/C=C/Nc2ccc(C)c(C)c2)c1C#N`, the Potency is reported as “inactive”.
For `CCC1CCc2c(c3ccccc3[nH]c2=O)O1` (stereo not given), the Potency was inconclusive: 4.47 µM [activator, full curve].
In the case of `C=CCC(Nc1ccc(OC)cc1)C(=O)OCC` (stereo not given), the Potency is reported as “inactive”.
For `COc1c(S(=O)(=O)NCCN2CCOCC2)ccc(Cl)c1Cl`, the Potency was inconclusive: 3.16 µM [activator, full curve].
With `CCCNC(=O)c1csc2c1CCCCC2` the Potency was inconclusive: 0.0398 µM [activator, full curve].
With `O=C(/C=C/c1ccc2c(c1)OCO2)Nc1nc(-c2ccc(F)cc2)cs1` the Potency was “inactive”.
With `CCOc1cc(C(C#N)N2CCOCC2)ccc1OC` (stereo not given) the Potency was inconclusive: 10 µM [activator, partial curve].
For `CCOc1ccccc1N1CCN(C(=O)c2c(C)noc2C)CC1`, the Potency was inconclusive: 0.0398 µM [activator, full curve].
For `O=c1c2ccccc2nnn1CSc1nc2ccccc2[nH]1`, the Potency was active: 25.1 µM.
With `O=C(N/N=C/c1ccncc1)c1cccc(NC(=O)c2ccc(Cl)cc2)c1` the Potency was “inactive”.
With `O=C(Cc1ccccc1)NN1C(=O)C2C(C1=O)C1C=CC2C12CC2` (stereo not given) the Potency was inconclusive: 0.355 µM [activator, full curve, poor fit].
In the case of `Cc1ccc(N2CC(C(=O)Nc3nccs3)CC2=O)cc1Cl` (stereo not given), the activity change, positive = activation is reported as inconclusive: 296% [activator].
In the case of `CC(C)C(=O)Nc1ccc(-c2csc(-c3ccccc3)n2)cc1`, the Potency is reported as inconclusive: 8.91 µM [activator, partial curve].
With `Cc1ccc(-n2nc3ccc(NC(=O)/C=C/c4ccco4)cc3n2)cc1C` the Potency was inconclusive: 15.8 µM [activator, single point].
In the case of `Cc1snc(SCC(=O)c2ccc([N+](=O)[O-])cc2)c1C#N`, the Potency is reported as inconclusive: 15.8 µM [activator, partial curve, poor fit].
In the case of `O=C(Nc1ccc(Oc2ccc(NC(=O)c3ccco3)c(NC(=O)c3ccco3)c2)cc1)c1ccco1`, the Potency is reported as inconclusive: 14.1 µM [activator, single point].
In the case of `Cc1ccc(Cn2c(SC(C)C(N)=O)nc3ccccc3c2=O)cc1` (stereo not given), the Potency is reported as inconclusive: 0.01 µM [activator, full curve, poor fit].
In the case of `CN(C)C(=O)CSc1nnc(Cc2ccc([N+](=O)[O-])cc2)o1`, the Potency is reported as inconclusive: 5.62 µM [activator, single point].
With `Cn1c(-c2cc3ccc(OC(=O)C(C)(C)C)cc3oc2=O)nc2ccccc21` the Potency was inconclusive: 35.5 µM [activator, single point].
In the case of `Cc1ccc(NC(=O)c2cc(S(=O)(=O)N3CCOCC3)ccc2F)c(C)c1`, the Potency is reported as inconclusive: 14.1 µM [activator, single point].
